Data from PubChem BioAssay AID1030 (National Center for Advancing Translational Sciences (NCATS), 2008).
The whole screen tested about 220,000 compounds, of which about 16,000 (7.3%) were called active. The inconclusive results got no clear call from the source; some entries with a clear call stand among them for comparison. The call rests on the fitted dose curve; in most records, active means well fitted inhibition curve with a large enough effect (not every such curve was filed as active); inconclusive means small, poorly fitted or top-dose-only effect, or another doubt; inactive means no such curve, though single readings can be large or run the other way. No potency is given beside an inconclusive call; the fits are too rough.

target: Aldehyde dehydrogenase 1A1 (Homo sapiens) (UniProt P00352); assay: qHTS Assay for Inhibitors of Aldehyde Dehydrogenase 1 (ALDH1A1); details: Purified ALDH1A1, NADH fluorescence, propionaldehyde substrate; series mostly up to 75.3 µM;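 on activity, negative = inhibition: plate controls were no enzyme wells and a reference inhibitor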
Potency means the concentration at half of the fitted maximal effect; tags describe the fitted curve by direction and shape.

Sequence of UniProt P00352 (P00352 whole entry, looked up): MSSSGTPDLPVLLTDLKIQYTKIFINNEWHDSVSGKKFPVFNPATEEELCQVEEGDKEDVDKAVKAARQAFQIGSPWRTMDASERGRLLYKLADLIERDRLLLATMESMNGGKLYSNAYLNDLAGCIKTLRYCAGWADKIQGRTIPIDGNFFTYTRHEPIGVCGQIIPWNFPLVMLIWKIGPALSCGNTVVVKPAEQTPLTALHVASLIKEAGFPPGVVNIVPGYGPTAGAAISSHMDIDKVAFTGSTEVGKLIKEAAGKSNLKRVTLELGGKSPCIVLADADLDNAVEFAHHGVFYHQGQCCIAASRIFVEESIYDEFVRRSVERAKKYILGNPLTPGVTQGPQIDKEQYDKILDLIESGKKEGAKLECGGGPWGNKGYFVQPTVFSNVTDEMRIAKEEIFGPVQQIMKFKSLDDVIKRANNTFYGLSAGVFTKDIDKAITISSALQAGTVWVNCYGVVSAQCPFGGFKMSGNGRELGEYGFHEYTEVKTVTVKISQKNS

Row | Structure (SMILES) | Potency | activity, negative = inhibition
1 | COc1ccccc1CC(=O)Nc1cc2oc3ccccc3c2cc1OC | inconclusive [inhibitor, single point] | –
2 | COc1cc(/C=C/C(=O)OCC(=O)NC2CCS(=O)(=O)C2)ccc1O (stereo not given) | inactive | –
3 | Cc1cc(C)nc(NC(=O)c2c(-c3ccccc3Cl)noc2C)c1 | inconclusive [inhibitor, partial curve] | –
4 | NC(=O)c1ccsc1NC(=O)c1ccc(S(=O)(=O)N2CCCCC2)cc1 | inconclusive [inhibitor, single point] | –
5 | COC(=O)c1c(NC(=O)c2ccccc2)sc(C(N)=O)c1C | inconclusive [inhibitor, single point] | –
6 | COc1ccc(/C=N/NC(=O)c2cccc(NC(=O)c3ccc(F)cc3)c2)c(C(=O)O)c1OC | inconclusive [inhibitor, partial curve] | –
7 | Cc1nn(-c2nnc(NC3CCCCC3)nn2)c(C)c1Br | active: 14.1 µM | –
8 | O=C(c1nnc(Cc2ccc(Cl)cc2)o1)N1CCc2ccccc2C1 | inconclusive [inhibitor, single point] | –
9 | CCOC(=O)C[n+]1c(C)ccc2c1CCC2 | inactive | –
10 | CCOC(=O)C1CCN(CC(=O)NC(=O)NC2CCCCC2)CC1 | inactive | –
11 | CC(C)Oc1ccc(C(=O)N2CCCc3ccccc32)cc1 | inconclusive [inhibitor, partial curve] | –
12 | CCNC(=S)N/N=C/c1ccc(OCc2ccc(C(=O)OC)cc2)cc1 | inactive | –
13 | CCOC(=O)/C(=C/c1c(C)n(C)c2ccc([N+](=O)[O-])cc12)C(C)=O | inactive | –
14 | Cc1ccc(OCC(=O)N2CCN(C(=O)CCC3CCCC3)CC2)cc1 | inconclusive [inhibitor, single point] | –
15 | Clc1ccc(OCc2cnc(Cl)s2)cc1 | inactive | –
16 | Cc1ccc(NC(=O)c2ccc([N+](=O)[O-])cc2)cc1S(=O)(=O)N(C)C | inconclusive [inhibitor, partial curve] | –
17 | Cc1ccccc1CS(=O)(=O)Cc1ccc(C(=O)NCCCN2CC(C)CC(C)C2)o1 (stereo not given) | inactive | –
18 | CC(=O)C1=C(C)NC(SCC(=O)c2ccc(F)cc2)=C(C#N)C1c1ccco1 (stereo not given) | active: 12.6 µM | –
19 | CC(C)CC(=O)Nc1ccccc1N1CCOCC1 | inconclusive [inhibitor, partial curve, poor fit] | –
20 | COc1ccccc1NC(=O)N1CCCC1 | inactive | –
21 | O=c1[nH]c2[nH]c(=S)[nH]c(=S)c2[nH]1 | inconclusive [inhibitor, single point] | –
22 | Cc1ccc2nc(SCC(=O)c3ccc4c(c3)OCO4)[nH]c2c1 | inconclusive [inhibitor, single point] | –
23 | O=C(Cn1cc(C(=O)c2cccs2)c2ccccc21)NC1CCCCC1 | inconclusive [inhibitor, single point] | –
24 | COc1ccc(CCNc2nc(-c3ccc(NC(C)=O)cc3)cs2)cc1OC | inconclusive [inhibitor, single point] | –
25 | OCCC1CN(Cc2nc3ccccc3s2)CCN1C1CCCC1 (stereo not given) | inactive | –

Row | Structure (SMILES) | Potency | activity, negative = inhibition
26 | CCC(=O)Nc1cc(C(=O)O)ccc1S(=O)(=O)c1ccc(C)cc1 | inactive | –
27 | O=C(O)CC/C(=C\c1ccc(N2CCOCC2)c([N+](=O)[O-])c1)c1nc2ccccc2s1 | active: 6.31 µM | –
28 | COc1cc2c(cc1NC(=O)COC(=O)[C@@H](NS(=O)(=O)c1ccccc1)C(C)C)oc1ccccc12 | inconclusive [inhibitor, single point] | –
29 | CCSc1nc2cc(OC)c(OC)cc2c(=O)n1CC | active: 8.91 µM | –
30 | C/C(=N\NC(=O)c1csc(C)c1C)c1ccc(C)s1 | inactive | –
31 | Cc1ccc(C(=O)c2cc3c(cc2[N+](=O)[O-])OCCO3)cc1 | inconclusive [inhibitor, single point] | –
32 | CCN(CC(=O)NCc1cccs1)S(=O)(=O)c1ccc([N+](=O)[O-])cc1 | inactive | –
33 | COc1cccc(CCNC(=O)CC2C(=O)NCCN2Cc2ccc(Cl)c(F)c2)c1 (stereo not given) | inconclusive [inhibitor, single point] | –
34 | Cc1ccc2c(c1)cc(CN(Cc1cccnc1)C(=O)NCc1ccccc1)c1nnnn12 | inconclusive [inhibitor, partial curve] | –
35 | CN(C)c1ccc(N=c2sc3ccccc3n2C)cc1 | active: 2 µM | –
36 | COc1ccc2c(CC(=O)NCCN3C(=O)S/C(=C\c4cccnc4)C3=O)coc2c1 | active: 22.4 µM | –
37 | CC(C)CCNc1nc(N2CCCC2)c2c(c1C#N)CCN(C)C2 | inconclusive [inhibitor, partial curve] | –
38 | Cc1nonc1OCCNCc1c(C(=O)N2CCCCCCC2)nc2ccc(Cl)cn12 | inconclusive [inhibitor, partial curve] | –
39 | c1ccc(OCc2nn3c(C4CCCCC4)nnc3s2)cc1 | inconclusive [inhibitor, single point] | –
40 | COc1ccc(OC)c(S(=O)(=O)Nc2cc(OC)c(Cl)cc2OC)c1 | inconclusive [inhibitor, partial curve] | –
41 | NCc1c(O)ccc2ccccc12 | inconclusive [inhibitor, single point] | –
42 | Nc1ccc2c(c1)C(=O)C(=O)c1ccccc1-2 | active: 2.24 µM | –
43 | Cc1onc(-c2ccccc2)c1C(=O)N1CCN(C)CC1 | inactive | –
44 | COc1ccc(-n2c(C)cc(C(=O)CN3C(=O)NC4(CCc5ccccc54)C3=O)c2C)cc1 (stereo not given) | inactive | –
45 | N/C(=N\OC(=O)c1ccccc1)c1ccccn1 | inactive | –
46 | O=C(C1=COCCO1)N1CCN(C(c2ccccc2)c2ccccc2)CC1 | active: 8.91 µM | –
47 | CC1(C)CC(=O)C2=C(C1)Nc1[nH]n(-c3ccccc3)c(=O)c1C2c1ccc2c(c1)OCO2 (stereo not given) | inconclusive [inhibitor, partial curve] | –
48 | CCN(CC)CCNC1=NCCn2c1cc1cc(OC)ccc12 | inconclusive [inhibitor, single point] | –
49 | CCOC12NC(=O)CC(=O)N1C(c1ccccc1)=CS2 (stereo not given) | inconclusive [inhibitor, single point] | –
50 | CCN1C(=O)[C@H]2[C@H]3[C@H](O)[C@H](O)C/C(=N/O[C@@H]4O[C@H](COC(C)=O)[C@@H](OC(C)=O)[C@H](OC(C)=O)[C@H]4OC(C)=O)[C@@H]3CC[C@@H]2C1=O | – | inactive: -2.13% [at 13.5 µM]

Row | Structure (SMILES) | Potency | activity, negative = inhibition
51 | C=CCn1c(=NC(=O)c2cc(-c3cccs3)nc3ccccc23)sc2cc(S(N)(=O)=O)ccc21 | inconclusive [inhibitor, partial curve] | –
52 | Cc1onc(-c2ccccc2)c1C(=O)Nc1sc2c(c1C#N)CCC2 | inconclusive [inhibitor, single point] | –
53 | CCCC(=O)n1nc(-c2ccco2)nc1SCc1ccccc1 | inconclusive [inhibitor, single point] | –
54 | COc1cc(C2C(C(=O)c3ccc(C)o3)=C(O)C(=O)N2c2cc(C)on2)ccc1O (stereo not given) | inactive | –
55 | COc1ccccc1-c1nnc(SCC(=O)c2ccc(C3CCCCC3)cc2)n1Cc1ccco1 | inconclusive [inhibitor, single point] | –
56 | Cc1ccc(S(=O)(=O)NNC(=O)NC23CC4CC(CC(C4)C2)C3)cc1 | inactive | –
57 | OCCN1CCN(c2ncnc3c2sc2nc(N4CCOCC4)c4c(c23)CCC4)CC1 | inconclusive [inhibitor, single point] | –
58 | Cc1ccc(C(=O)NS(=O)(=O)c2ccc(N=NN(C)C)cc2)cc1 | inconclusive [inhibitor, single point] | –
59 | Cc1ccc(C(C(=O)NC2CCCCC2)N2CCCC2)cc1 (stereo not given) | inactive | –
60 | COc1ccccc1-c1nnc(SC(C(=O)c2c[nH]c3ccccc23)c2ccccc2)n1C (stereo not given) | inactive | –
61 | COc1cccc(Cn2c(=O)c(-c3cccs3)nc3cnc(N(C)C)nc32)c1 | inconclusive [inhibitor, partial curve] | –
62 | Cc1ccc(C(=O)COC(=O)C2C3C=CC(C3)C2C(=O)OCC(=O)c2ccc(C)c(C)c2)cc1C (stereo not given) | inconclusive [inhibitor, single point] | –
63 | CC(O)CNc1ccc(-c2nn(C)c(=O)c3ccccc23)cc1[N+](=O)[O-] (stereo not given) | active: 7.94 µM | –
64 | CCCOc1cccc(C(=O)NC(=S)Nc2cccc(C(F)(F)F)c2)c1 | active: 17.8 µM | –
65 | O=C(Nc1nnc(CCN2CCCCC2)s1)c1ccccc1Cl | inactive | –
66 | COc1cccc(OC)c1C(=O)NC(=S)NNC(=O)[C@H]1C[C@@H]1c1ccccc1 | inactive | –
67 | Cc1ccc(C(=O)NNC(=O)c2ccc(C)cc2)cc1 | inactive | –
68 | Cc1ccc(S(=O)(=O)Nc2ccc(NC(=O)c3cccs3)cc2)cc1 | active: 28.2 µM | –
69 | Cc1ccc(N(CC(=O)NCc2ccc(F)cc2)C(=O)c2csnn2)cc1C | inactive | –
70 | COC(=O)c1ccc(-c2ccc(C(c3c(C)[nH][nH]c3=O)c3c(C)[nH][nH]c3=O)o2)cc1 | active: 3.55 µM | –
71 | CCCSc1nc(SCC(=O)NCc2ccccc2)c2c3c(sc2n1)COC(C)(C)C3 | inactive | –
72 | Nc1nc2ccc(C(=O)NCCOC(=O)C3CCCCC3)cc2s1 | active: 10 µM | –
73 | COc1ccc(NC(=O)N2CC3(CCN(C(=O)c4cccc(F)c4)CC3)C2)cc1 | inconclusive [inhibitor, single point] | –
74 | CCOC(=O)c1ccccc1NC(=O)CSc1nc(N)cc(N)n1 | inactive | –
75 | CC(C)OC(=O)c1cc(NC(=O)c2nn(C)cc2Br)cc(C(=O)OC(C)C)c1 | inconclusive [inhibitor, single point] | –
